Assay in all cases: ELISA; PARP1(518-1014), H3 or H4 coated onto wells (10 mM HEPES pH 7.5, 0.1 M KCl, 3 mM MgCl2), blocked with 1% BSA; SMYD2 proteins added at different concentrations, detected with anti-SMYD2 antibody; four-parameter logistic fit
What all share (conditions): both partners purified
A general note: ELISA stands for enzyme-linked immunosorbent assay.

One assay has as its target Histone H3 (UniProt P68431).
In another assay the target is T1, Histone H4 (UniProt P62805).
T1 construct: Histone H4

Assay [1] has as its target T2, Human PARP1 (residues 518-1014) (human, UniProt P09874 in part).
T2 construct: also called PARP1(518-1014); PARP1 protein; not shown: 6xHis-SUMO, N-terminal, cleaved
T2 sequence (P09874 518-1014): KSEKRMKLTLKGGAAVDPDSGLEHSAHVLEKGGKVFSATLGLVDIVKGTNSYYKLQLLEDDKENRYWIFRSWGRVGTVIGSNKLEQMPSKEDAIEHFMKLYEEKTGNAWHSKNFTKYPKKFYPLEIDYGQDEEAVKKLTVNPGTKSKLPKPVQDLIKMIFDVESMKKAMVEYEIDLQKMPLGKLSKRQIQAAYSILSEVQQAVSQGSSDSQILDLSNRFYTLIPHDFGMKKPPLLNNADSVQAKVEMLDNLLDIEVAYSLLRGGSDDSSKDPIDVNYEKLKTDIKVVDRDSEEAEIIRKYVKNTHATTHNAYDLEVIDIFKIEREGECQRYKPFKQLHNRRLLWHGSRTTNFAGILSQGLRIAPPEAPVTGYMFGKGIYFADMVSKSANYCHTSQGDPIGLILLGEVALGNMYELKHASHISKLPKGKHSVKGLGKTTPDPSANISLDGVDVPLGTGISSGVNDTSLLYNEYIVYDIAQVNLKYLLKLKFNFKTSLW

B1: SMYD[…]A (enzyme)
chain: not shown
notes: SMYD2, human, full length, […], with F184A (target lysine access channel); also called F184A mutant; not shown: 6xHis-SUMO, N-terminal, cleaved
One may read the EC50 as the concentration needed to bring the measured effect to its halfway point. The low end stands for higher potency in that assay, the high end for lower potency in that assay. For the molecule B1, the concentration for a half-maximal effect (EC50) with Histone H3 came to 85 nM; with Histone H4, 95 nM; in assay [1], 85 nM.

B2: SMYD[…]A/W356A (enzyme)
chain: not shown
notes: also called L351A/W356A mutant; not shown: 6xHis-SUMO, N-terminal, cleaved
Turning to B2, the half-maximal effective concentration (EC50) with Histone H3 worked out at 23 nM; with Histone H4, 33 nM; in assay [1], 53 nM.

The record behind these values is publication doi:10.1101/2024.12.03.626679, “Structure of the SMYD2-PARP1 Complex Reveals Both Productive and Allosteric Modes of Peptide Binding” (bioRxiv, 2024).
